Test systems include A101D; A2058; A375.
What all share (experiment): cell count relative to DMSO control; melanoma cells; higher = more viable cells
Holding throughout (details): library dose: standard library concentration; 72 h

The list shows a part of the results. Most values come without repeats; read them as rough.
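Further: cells treated in 1,536-well plates, then fixed and DAPI-stained, with nuclei counted from automated high-throughput microscope images.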

Consider `CC(=O)O[C@@]12CO[C@@H]1C[C@H](O)[C@@]1(C)C(=O)[C@H](O)C3=C(C)[C@@H](OC(=O)[C@H](O)[C@@H](NC(=O)OC(C)(C)C)c4ccccc4)C[C@@](O)([C@@H](OC(=O)c4ccccc4)[C@H]21)C3(C)C` [Docetaxel] + O=C(O)[C@@H]1[O][Sb](=[O])([O][Sb]2(=[O])[O][C@H]([C@H](O)CO)[C@H](O)[C@H](C(=O)O)[O]2)[O][C@H]([C@H](O)CO)[C@@H]1O [stibogluconate] (first compound 0.0005 µM, partner dose 10 µM), for which the cell count was 42.4% in the assay with A101D, 8.82% in the assay with A2058 and 63.7% with A375.

For the compound `CO[C@H]1C[C@@H]2CC[C@@H](C)[C@@](O)(O2)C(=O)C(=O)N2CCCC[C@H]2C(=O)O[C@H]([C@H](C)C[C@@H]2CC[C@@H](OCCO)[C@H](OC)C2)CC(=O)[C@H](C)/C=C(\C)[C@@H](O)[C@@H](OC)C(=O)[C@H](C)C[C@H](C)/C=C/C=C/C=C/1C` [everolimus] + CC(=O)c1c(C)c2cnc(Nc3ccc(N4CCNCC4)cn3)nc2n(C2CCCC2)c1=O [palbociclib] (first compound 0.1 µM, partner dose 0.2 µM), the figures for the cell count in the assay with A101D, in the assay on A2058 and in the assay with A375 were 75.1%, 57.9% and 66.1%, respectively.

As to `CO[C@H]1C[C@@H]2CC[C@@H](C)[C@@](O)(O2)C(=O)C(=O)N2CCCC[C@H]2C(=O)O[C@H]([C@H](C)C[C@@H]2CC[C@@H](OCCO)[C@H](OC)C2)CC(=O)[C@H](C)/C=C(\C)[C@@H](O)[C@@H](OC)C(=O)[C@H](C)C[C@H](C)/C=C/C=C/C=C/1C` [everolimus] + Cn1c(Nc2ccc(C(F)(F)F)cc2)nc2cc(Oc3ccnc(-c4ncc(C(F)(F)F)[nH]4)c3)ccc21 [CHIR265] (first compound 0.1 µM, partner dose 0.4 µM), the cell count turned out to be 47.7% in the assay on A101D, 33% in the assay with A2058 and 84% in the assay on A375.

`CC(=O)O[C@@]12CO[C@@H]1C[C@H](O)[C@@]1(C)C(=O)[C@H](O)C3=C(C)[C@@H](OC(=O)[C@H](O)[C@@H](NC(=O)OC(C)(C)C)c4ccccc4)C[C@@](O)([C@@H](OC(=O)c4ccccc4)[C@H]21)C3(C)C` [Docetaxel] + CN(C)S(=O)(=O)c1ccc2c(c1)/C(=C/c1cc3c([nH]1)CCCC3)C(=O)N2 [SU6656] (first compound 0.0005 µM, partner dose 2 µM): the cell count worked out at 66.9% in the assay with A101D, 8.97% in the assay with A2058 and 75.5% in the assay on A375.

As for `CC(=O)O[C@@]12CO[C@@H]1C[C@H](O)[C@@]1(C)C(=O)[C@H](O)C3=C(C)[C@@H](OC(=O)[C@H](O)[C@@H](NC(=O)OC(C)(C)C)c4ccccc4)C[C@@](O)([C@@H](OC(=O)c4ccccc4)[C@H]21)C3(C)C` [Docetaxel] + OCCn1cc(-c2cnc3nnn(Cc4ccc5ncccc5c4)c3n2)cn1 [PF04217903] (first compound 0.0005 µM, partner dose 5 µM), the figures for the cell count in the assay on A101D, in the assay on A2058 and with A375 were 64.3%, 4.25% and 64.1%, respectively.

As for `CC(=O)c1c(C)c2cnc(Nc3ccc(N4CCNCC4)cn3)nc2n(C2CCCC2)c1=O` [palbociclib] + Clc1ccc(Nc2nnc(Cc3ccncc3)c3ccccc23)cc1 [vatalanib] (first compound 0.2 µM, partner dose 10 µM), the cell count amounted to 65.3% in the assay with A101D, 75.4% with A2058 and 56.6% in the assay with A375.

Take `Nc1ncn([C@H]2C[C@H](O)[C@@H](CO)O2)c(=O)n1` [decitabine] + COc1cc2c(Oc3ccc4[nH]c(C)cc4c3F)ncnc2cc1OCCCN1CCCC1 [cediranib] (first compound 0.5 µM, partner dose 2 µM): the cell count with A101D came out at 105%; with A2058, 75.7%; in the assay on A375 it was 116%.

For the compound `Nc1ncn([C@H]2C[C@H](O)[C@@H](CO)O2)c(=O)n1` [decitabine] + CC1(C)NC(=O)N(c2ccc([N+](=O)[O-])c(C(F)(F)F)c2)C1=O [nilutamide] (first compound 0.5 µM, partner dose 5 µM), the cell count in the assay with A101D came to 81.1%; in the assay on A2058 it was 71.7%; in the assay on A375, 94.5%.

Take `CC(=O)O[C@@]12CO[C@@H]1C[C@H](O)[C@@]1(C)C(=O)[C@H](O)C3=C(C)[C@@H](OC(=O)[C@H](O)[C@@H](NC(=O)OC(C)(C)C)c4ccccc4)C[C@@](O)([C@@H](OC(=O)c4ccccc4)[C@H]21)C3(C)C` [Docetaxel] + C=CCNC1=C2C[C@@H](C)C[C@H](OC)[C@H](O)[C@@H](C)/C=C(\C)[C@H](OC(N)=O)[C@@H](OC)/C=C\C=C(/C)C(=O)NC(=CC1=O)C2=O [Tanespimycin] (first compound 0.0005 µM, partner dose 0.01 µM): the cell count with A101D worked out at 44.1%; with A2058, 5.37%; with A375, 79.4%.

On to `Nc1ccn([C@@H]2O[C@H](CO)[C@@H](O)C2(F)F)c(=O)n1` [gemcitabine] + Cn1c(Nc2ccc(C(F)(F)F)cc2)nc2cc(Oc3ccnc(-c4ncc(C(F)(F)F)[nH]4)c3)ccc21 [CHIR265] (first compound 0.002 µM, partner dose 0.4 µM), for which the figures for the cell count in the assay with A101D, with A2058 and in the assay with A375 were 68.3%, 39.4% and 100%, respectively.

Consider `CO[C@H]1C[C@@H]2CC[C@@H](C)[C@@](O)(O2)C(=O)C(=O)N2CCCC[C@H]2C(=O)O[C@H]([C@H](C)C[C@@H]2CC[C@@H](OCCO)[C@H](OC)C2)CC(=O)[C@H](C)/C=C(\C)[C@@H](O)[C@@H](OC)C(=O)[C@H](C)C[C@H](C)/C=C/C=C/C=C/1C` [everolimus] + Cc1nc(Nc2ncc(C(=O)Nc3c(C)cccc3Cl)s2)cc(N2CCN(CCO)CC2)n1 [dasatanib] (first compound 0.1 µM, partner dose 0.02 µM), for which the cell count in the assay with A101D was found to be 76.5%; in the assay on A2058, 50.8%; in the assay on A375, 86.9%.

Turning to `Nc1ccn([C@@H]2O[C@H](CO)[C@@H](O)C2(F)F)c(=O)n1` [gemcitabine] + Nc1cccc2c1CN(C1CCC(=O)NC1=O)C2=O [lenalidomide] (first compound 0.002 µM, partner dose 5 µM), the cell count came to 71.2% in the assay on A101D, 40.2% in the assay with A2058 and 84.4% in the assay with A375.

Regarding `CO[C@H]1C[C@@H]2CC[C@@H](C)[C@@](O)(O2)C(=O)C(=O)N2CCCC[C@H]2C(=O)O[C@H]([C@H](C)C[C@@H]2CC[C@@H](OCCO)[C@H](OC)C2)CC(=O)[C@H](C)/C=C(\C)[C@@H](O)[C@@H](OC)C(=O)[C@H](C)C[C@H](C)/C=C/C=C/C=C/1C` [everolimus] + OCc1c[nH]c2ccccc12 [Indole-3-carbinol] (first compound 0.1 µM, partner dose 4 µM), the cell count stood at 98.9% in the assay with A101D, 78.7% in the assay on A2058 and 107% with A375.

Regarding `Nc1nc(F)nc2c1ncn2[C@@H]1O[C@H](CO)[C@@H](O)[C@@H]1O` [fludarabine] + O=S(=O)(c1ccccc1)N(CC(F)(F)F)c1ccc(C(O)(C(F)(F)F)C(F)(F)F)cc1 [T0901317] (first compound 1 µM, partner dose 7 µM), the cell count was 74.6% with A101D, 85.2% in the assay with A2058 and 42.2% in the assay on A375.

As for `Nc1ncn([C@H]2C[C@H](O)[C@@H](CO)O2)c(=O)n1` [decitabine] + C[C@]1(c2nc3c(C(N)=O)cccc3[nH]2)CCCN1 [Veliparib] (first compound 0.5 µM, partner dose 7 µM), the cell count was 72.2% in the assay on A101D, 38.1% with A2058 and 89% in the assay on A375.

For `CC(=O)O[C@@]12CO[C@@H]1C[C@H](O)[C@@]1(C)C(=O)[C@H](O)C3=C(C)[C@@H](OC(=O)[C@H](O)[C@@H](NC(=O)OC(C)(C)C)c4ccccc4)C[C@@](O)([C@@H](OC(=O)c4ccccc4)[C@H]21)C3(C)C` [Docetaxel] + OCc1c[nH]c2ccccc12 [Indole-3-carbinol] (first compound 0.0005 µM, partner dose 4 µM), the figures for the cell count in the assay on A101D, in the assay with A2058 and in the assay with A375 were 59.7%, 8.65% and 71.3%, respectively.

On to `Nc1nc(F)nc2c1ncn2[C@@H]1O[C@H](CO)[C@@H](O)[C@@H]1O` [fludarabine] + COCC[n+]1c2c(n(Cc3cnccn3)c1C)C(=O)c1ccccc1C2=O [YM155] (first compound 1 µM, partner dose 0.002 µM), for which the figures for the cell count with A101D, in the assay with A2058 and in the assay on A375 were 74.2%, 20.8% and 44.5%, respectively.

As to `Nc1nc(F)nc2c1ncn2[C@@H]1O[C@H](CO)[C@@H](O)[C@@H]1O` [fludarabine] + C[C@]1(c2nc3c(C(N)=O)cccc3[nH]2)CCCN1 [Veliparib] (first compound 1 µM, partner dose 7 µM), the cell count with A101D was 102%; in the assay with A2058 it was 65.4%; with A375, 62.7%.

For `CC(=O)c1c(C)c2cnc(Nc3ccc(N4CCNCC4)cn3)nc2n(C2CCCC2)c1=O` [palbociclib] + Nc1cccc2c1CN(C1CCC(=O)NC1=O)C2=O [lenalidomide] (first compound 0.2 µM, partner dose 5 µM), the cell count in the assay on A101D came out at 68%; in the assay on A2058 it was 106%; in the assay with A375, 84.4%.

With `Nc1ccn([C@@H]2O[C@H](CO)[C@@H](O)C2(F)F)c(=O)n1` [gemcitabine] + OCc1c[nH]c2ccccc12 [Indole-3-carbinol] (first compound 0.002 µM, partner dose 4 µM), the figures for the cell count in the assay on A101D, in the assay with A2058 and with A375 were 75%, 51.5% and 130%, respectively.

Turning to `CC(=O)O[C@@]12CO[C@@H]1C[C@H](O)[C@@]1(C)C(=O)[C@H](O)C3=C(C)[C@@H](OC(=O)[C@H](O)[C@@H](NC(=O)OC(C)(C)C)c4ccccc4)C[C@@](O)([C@@H](OC(=O)c4ccccc4)[C@H]21)C3(C)C` [Docetaxel] + O=C(Nc1cccc(Cl)c1)Nc1ncc(CCNc2ncnc3ccsc23)s1 [SNS314] (first compound 0.0005 µM, partner dose 0.004 µM), the cell count in the assay on A101D is 58.8%; with A2058, 14.2%; with A375, 52%.

As for `Nc1ccn([C@@H]2O[C@H](CO)[C@@H](O)C2(F)F)c(=O)n1` [gemcitabine] + CC(=O)c1c(C)c2cnc(Nc3ccc(N4CCNCC4)cn3)nc2n(C2CCCC2)c1=O [palbociclib] (first compound 0.002 µM, partner dose 0.2 µM), the results for the cell count with A101D, in the assay with A2058 and in the assay with A375 were 58.4%, 58.9% and 50.7%, respectively.
